From PubChem BioAssay AID360 (National Center for Advancing Translational Sciences (NCATS), 2006)
Hit rate of the full screen: of about 48,000 compounds, about 550 (1.1%) were called active. Not shown: some 4% with an inconclusive outcome. No stated cut-off is given here; in the data, active means potency below about 15 µM; inconclusive means mostly about 16 µM to 33 µM; inactive means weaker than that. Some of the results follow.

Each compound was assayed against Lysosomal acid glucosylceramidase (Homo sapiens) (UniProt P04062) (assay: Glucocerebrosidase). Details: purified enzyme, resorufin glucoside fluorescence (screen aimed at inhibitors), 20 min; series mostly up to 77 µM.
Sequence of UniProt P04062 (P04062 whole entry, looked up): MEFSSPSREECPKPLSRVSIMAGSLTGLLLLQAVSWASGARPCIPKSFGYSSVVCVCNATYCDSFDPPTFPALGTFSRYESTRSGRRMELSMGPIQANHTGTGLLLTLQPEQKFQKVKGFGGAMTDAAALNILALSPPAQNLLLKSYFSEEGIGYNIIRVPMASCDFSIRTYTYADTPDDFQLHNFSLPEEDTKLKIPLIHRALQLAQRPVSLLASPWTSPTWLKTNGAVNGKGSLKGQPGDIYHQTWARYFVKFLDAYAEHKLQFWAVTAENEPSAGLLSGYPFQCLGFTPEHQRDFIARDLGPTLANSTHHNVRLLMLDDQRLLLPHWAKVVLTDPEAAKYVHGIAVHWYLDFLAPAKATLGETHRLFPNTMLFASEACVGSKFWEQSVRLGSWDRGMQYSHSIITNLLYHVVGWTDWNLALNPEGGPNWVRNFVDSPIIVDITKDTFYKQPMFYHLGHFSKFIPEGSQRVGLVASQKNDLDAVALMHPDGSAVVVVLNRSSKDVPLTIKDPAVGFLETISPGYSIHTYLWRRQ
Outline: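 Compounds titrated against 0.2 nM normal enzyme, 30 uM resorufin beta-D-glucopyranoside substrate, citrate/phosphate buffer with taurocholate and tween-20, pH 5.9. Reaction ran 20 min at room temperature; fluorescence (Ex 548/Em 600) gave AC50.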
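Further: the screen sought inhibitors.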
Potency means the concentration at half of the fitted maximal effect.

SMILES | Potency
Cc1occc1C(=O)Nc1nn[nH]n1 | inactive: > 76.9 µM
Cc1cc(C(=O)Nc2sc3c(c2C#N)CCCCC3)cs1 | inactive: > 76.9 µM
Cc1ccc(-n2ccnc2SCC(=O)N(CC(C)C)C2CCS(=O)(=O)C2)c(C)c1 (stereo not given) | inactive: > 76.9 µM
CC1CCN(C(=O)CSc2ccc3nnc(-c4ccc(F)cc4)n3n2)CC1 | inactive: > 76.9 µM
CCC1Oc2ccccc2N(CC(=O)Nc2ccc3c(c2)OCCO3)C1=O (stereo not given) | inactive: > 76.9 µM
COc1ccc(C2C(C(=O)N3CCN(c4ccccc4F)CC3)c3ccccc3C(=O)N2C)cc1 (stereo not given) | inactive: > 76.9 µM
CC(C)(C)OC(=O)c1c(N)n(CCCN2CCCC2=O)c2nc3ccccc3nc12 | inactive: > 76.9 µM
CCCCN1C(=O)C(NC(C)=O)c2cc(Br)ccc21 (stereo not given) | inactive: > 76.9 µM
CCC(c1nnnn1C1CCCC1)N1CCN(c2ccccc2F)CC1 (stereo not given) | inactive: > 76.9 µM
CCCn1nc(-c2ccccc2)c2nc3ccccc3nc21 | inactive: > 76.9 µM
CCn1c(SCc2ccc(C(=O)OC)o2)nc2sc3c(c2c1=O)CCCC3 | inactive: > 76.9 µM
CC(c1nnc(SCC(=O)Nc2ccc3[nH]c(=O)[nH]c3c2)n1Cc1ccccc1)N(C)C (stereo not given) | inactive: > 76.9 µM
COC(=O)CCCC(=O)N1CCOCCN(C(=O)CCCC(=O)OC)CCOCC1 | inactive: > 76.9 µM
CCCn1c2c(c(O)c(C(=O)Nc3ccc(OCC)cc3)c1=O)CCCC2 | inactive: > 76.9 µM
CCOC(=O)c1cnc(SCC(=O)Nc2ccccc2N2CCOCC2)nc1N | inactive: > 76.9 µM
Cc1cc(NC(=O)CCCSc2nc(-c3ccco3)cc(C(F)(F)F)n2)no1 | inactive: > 76.9 µM
COc1ccc(S(=O)(=O)N2CCCC2C(=O)Nc2nccs2)cc1 (stereo not given) | inactive: > 76.9 µM
COc1cc(C(=O)NCCc2ccc(S(N)(=O)=O)cc2)cc(OC)c1OC | inactive: > 76.9 µM
Cc1ccc(C(=O)NC2CC(C)(C)NC(C)(C)C2)cc1C | inactive: > 76.9 µM
CCOC(=O)CN(C(=O)CSc1nnc(CNc2ccc(C)cc2C)o1)c1ccccc1 | inactive: > 76.9 µM
CC(C)Oc1ccc(C(CC(=O)O)NC(=O)C2CCCCC2)cc1 (stereo not given) | inactive: > 76.9 µM
COc1cccc(NC(=O)CCSc2nnc3scc(-c4ccccc4)n23)c1 | inactive: > 76.9 µM
O=C(CC1Nc2ccccc2NC1=O)NCCCN1CCCCCC1 (stereo not given) | inactive: > 76.9 µM

SMILES | Potency
Cc1cc(N(C)C)c(C#N)c(NCc2ccccc2)n1 | inactive: > 76.9 µM
CCOc1ccc(C2/C(=C(\O)c3cccc(OC)c3)C(=O)C(=O)N2c2cc(C)on2)cc1OC (stereo not given) | inactive: > 76.9 µM
O=C(CN1C(=O)NC2(CCCC2)C1=O)N1CCN(C(=O)c2ccco2)CC1 | inactive: > 76.9 µM
O=C(Nc1nc2ccccc2[nH]1)C1CC(=O)N(c2ccc3c(c2)OCCO3)C1 (stereo not given) | inactive: > 76.9 µM
COC(=O)C(O)(CC(=O)Nc1ccc(OC(F)(F)F)cc1)C(F)(F)F (stereo not given) | inactive: > 76.9 µM
Cc1ccccc1OCCN1C(=O)NC2(CCc3ccccc32)C1=O (stereo not given) | inactive: > 76.9 µM
O=C(Oc1ccc(-c2nnco2)cc1)N(c1ccccc1)c1ccccc1 | inactive: > 76.9 µM
Cc1ccc(C)c(NC2=CC(=O)CC(C)(C)C2)c1C#N | inactive: > 76.9 µM
COCCCNC(=O)CCCn1c(=O)c2ccccc2n(CC(=O)Nc2c(C)cc(C)cc2C)c1=O | inactive: > 76.9 µM
COCCn1cnc2c1c(=O)n(CC(=O)c1ccc3c(c1)OCCO3)c(=O)n2Cc1ccccc1 | inactive: > 76.9 µM
N#Cc1ccc(Oc2ccc(C(N)=O)cc2)cc1C#N | inactive: > 76.9 µM
CCN(CC)c1nc2n(c(=O)n1)CCN2CC | inactive: > 76.9 µM
Cc1cc(C)nc(Nc2ccc(N3CCOCC3)cc2)n1 | inactive: > 76.9 µM
CCCc1nc2ccccc2c(=O)n1/N=C/c1ccccc1O | inactive: > 76.9 µM
CC(=O)c1c(C)[nH]c(C(=O)CSc2nnc(-c3ccco3)n2Cc2ccccc2)c1C | inactive: > 76.9 µM
Cc1cc(C(N)=O)c2ccccc2n1 | inactive: > 76.9 µM
COc1cccc(CCC(=O)O)c1OC | inactive: > 76.9 µM
CCOC(=O)C1=C(C)NC(=O)NC1/C=C/c1ccccc1 (stereo not given) | inactive: > 76.9 µM
N#Cc1nc(-c2ccco2)oc1N1CCc2ccccc2C1 | inactive: > 76.9 µM
CCOC(=O)c1c(NC(=O)CSc2nnc(-c3ccc(OC)cc3)o2)sc2c1CCC2 | inactive: > 76.9 µM
CCOC(=O)CSc1nc2ccccc2c(=O)n1CC1COc2ccccc2O1 (stereo not given) | inactive: > 76.9 µM
Cc1cc(C(=O)COC(=O)CCC(=O)c2ccc3c(c2)OCCO3)c(C)n1Cc1ccco1 | inactive: > 76.9 µM
CCNc1nc(Oc2ccc(=O)n(-c3ccccc3)n2)nc(N2CCOCC2)n1 | inactive: > 76.9 µM

SMILES | Potency
Cc1cc(C)cc(OCC(=O)Nc2nonc2NC(=O)COc2cc(C)cc(C)c2)c1 | inactive: > 76.9 µM
Cc1cc(=O)n2[nH]c(COc3ccccc3)nc2n1 | inactive: > 76.9 µM
Cc1ccc(NC2SC(=O)N(Cc3cccc(C(=O)O)c3)C2=O)cc1 (stereo not given) | inactive: > 76.9 µM
O=C(NCc1ccccc1)C(c1cccs1)N(C(=O)c1csnn1)C1CC1 (stereo not given) | inactive: > 76.9 µM
Cc1ccc(-c2c3c(=O)n(C)c(=O)n(C)c3cn2-n2cnnc2)cc1 | inactive: > 76.9 µM
Cc1cc(C(=O)CSc2nnc(Nc3ccccc3F)s2)c(C)n1CC1CCCO1 (stereo not given) | inactive: > 76.9 µM
COc1ccc(N2C(=O)C3C4C=CC(C4)C3C2=O)c(OC)c1 (stereo not given) | inactive: > 76.9 µM
Cc1ccc(Cn2ccc(NC(=O)c3nc4ncccn4n3)n2)cc1 | inactive: > 76.9 µM
Cc1ccc(S(=O)(=O)NCCn2c(C)cc3ccccc32)cc1 | inactive: > 76.9 µM
CCCC(=O)Nc1ccc(C(=O)NCCCn2ccnc2)cc1 | active: 6.73 µM
Cc1ccc(NCc2nnc(SCC(=O)NCc3ccco3)n2CC2CCCO2)cc1Cl (stereo not given) | inactive: > 76.9 µM
Cc1ccccc1-c1nnc(SCC(=O)Nc2ccc(Cl)cc2)n1N | inactive: > 76.9 µM
CCOc1cc(S(=O)(=O)N2CCC(Cc3ccccc3)CC2)c(OCC)cc1-n1cnnn1 | inactive: > 76.9 µM
O=C(CCCCCN1C(=O)CCC1=O)Nc1ncn[nH]1 | inactive: > 76.9 µM
CN(C)c1ccc(C(=O)Nc2ccc(S(=O)(=O)NC3=NCCCCC3)cc2)cc1 | inactive: > 76.9 µM
O=C(Nc1ccc(F)cc1)NC1CCN(Cc2nnnn2Cc2ccco2)CC1 | inactive: > 76.9 µM
O=c1cc(CO)oc(CN2CCC(Cc3ccccc3)CC2)c1O | inactive: > 76.9 µM
Cc1ccc(C(=O)OCC(=O)N2CC(=O)Nc3ccccc32)s1 | inactive: > 76.9 µM
CC(C)(C)n1ncc2c(=O)n(Cc3c(F)cccc3Cl)cnc21 | inactive: > 76.9 µM
COCc1cc(C)nc(SCC(=O)Nc2cccc(C)c2)c1C#N | inactive: > 76.9 µM
CSc1ccc(-c2nnn(Cc3ccccn3)n2)cc1 | inactive: > 76.9 µM
Nc1nc(-c2ccc(Br)s2)c(Br)s1 | inactive: > 76.9 µM
Cc1ccc(-c2csc3ncnc(Sc4nnc(CN5CCCCCC5=O)o4)c23)cc1 | inactive: > 76.9 µM

SMILES | Potency
COc1cc(OC)cc(-c2nc(-c3cc4cc(C)ccc4nc3OC)no2)c1 | inactive: > 76.9 µM
C=CCNC(=O)c1cc(=O)c2ccccc2o1 | inactive: > 76.9 µM
CCN1C(=O)/C(=C/N2CC(C)CC(C)C2)SC1=S (stereo not given) | inactive: > 76.9 µM
COc1ccc2nc(NC(=O)CN(c3ccc(C)cc3)S(=O)(=O)c3c(C)nn(C)c3C)sc2c1 | inactive: > 76.9 µM
CSc1nc(C)cc(-n2ccc(=O)[nH]c2=O)n1 | inactive: > 76.9 µM
CCCS(=O)(=O)N1CCCC(C(=O)NCc2ccc3c(c2)OCO3)C1 (stereo not given) | inactive: > 76.9 µM
COc1ccc2c(c1)CCc1c(C(=O)NCCCn3ccnc3)noc1-2 | inactive: > 76.9 µM
C=CCn1c(SCC(N)=O)nnc1-c1cccc(Br)c1 | inactive: > 76.9 µM
O=c1cc(CO)oc(CN2CCN(c3ccccc3)CC2)c1O | inactive: > 76.9 µM
CCNC(=O)NC(=O)C(C)Oc1ccc(C(=O)OC)cc1 (stereo not given) | inactive: > 76.9 µM
COc1ccc(C2N(c3cc(C)on3)C(=O)C3CCCN32)cc1OC (stereo not given) | inactive: > 76.9 µM
CCSc1nnc(-c2cccs2)o1 | inactive: > 76.9 µM
O=C(CN1CCNCC1)Nc1ccccc1Cl | inactive: > 76.9 µM
CS(=O)(=O)N(Cc1ccc(F)cc1)Cc1nc2ccccc2c(=O)[nH]1 | inactive: > 76.9 µM
c1ccc(CCN2CCN(c3ncnc4c3cnn4-c3ccccc3)CC2)cc1 | inactive: > 76.9 µM
Cc1ccc(NCc2nnc(SCC(=O)N3CCCCC3)n2CC2CCCO2)c(C)c1 (stereo not given) | inactive: > 76.9 µM
CCCCCn1c(=O)c(C(=O)OCC)c(O)c2ccccc21 | inactive: > 76.9 µM
Cc1cccc(NC(=O)c2oc3c(c2C)C(=O)CC(C)(C)C3)n1 | inactive: > 76.9 µM
Cc1ccc(N2CC(C(=O)NCc3ccc4c(c3)OCO4)CC2=O)cc1C (stereo not given) | inactive: > 76.9 µM
Cc1cc(-c2nnc(-c3cc4ccccc4oc3=O)o2)c(C)n1-c1ccccc1 | inactive: > 76.9 µM
COc1ccc(N(CC(=O)O)S(C)(=O)=O)cc1OC | inactive: > 76.9 µM
